Our source for the cell count values is the supplement of paper PMC4604168 (melanoma cell lines).

The other results are listed elsewhere or left out. Many values rest on one well or one pass, so single values are uncertain.
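Further: cells treated in 1,536-well plates, then fixed and DAPI-stained, with nuclei counted from automated high-throughput microscope images.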

The assay concerns SkMel30. In words: cell count relative to DMSO control; melanoma cells; higher = more viable cells. The settings on record: library dose: standard library concentration; 72 h.
`N#CC[C@H](C1CCCC1)n1cc(-c2ncnc3[nH]ccc23)cn1` [ruxolitinib] + Cc1ccc(NC(=O)c2cccc(N(C)C)c2)cc1NC(=O)c1ccc(O)cc1 [ZM336372] (first compound 5 µM, partner dose 10 µM): the cell count stood at 106%. On to `Cc1cc(Nc2cc(N3CCN(C)CC3)nc(Sc3ccc(NC(=O)C4CC4)cc3)n2)n[nH]1` [Tozasertib] + CO[C@@H]1[C@H](N(C)C(=O)c2ccccc2)C[C@H]2O[C@]1(C)n1c3ccccc3c3c4c(c5c6ccccc6n2c5c31)C(=O)NC4 [Midostaurin] (first compound 0.03 µM, partner dose 0.4 µM), for which the cell count was found to be 78.9%. `N#CC[C@H](C1CCCC1)n1cc(-c2ncnc3[nH]ccc23)cn1` [ruxolitinib] + COc1cc(Nc2ncc(F)c(Nc3ccc4c(n3)NC(=O)C(C)(C)O4)n2)cc(OC)c1OC [Tamatinib] (first compound 5 µM, partner dose 2 µM) came in with a cell count of 96.1%. The result for `Cc1cc(Nc2cc(N3CCN(C)CC3)nc(Sc3ccc(NC(=O)C4CC4)cc3)n2)n[nH]1` [Tozasertib] + O=C(O)c1ccc(-c2c[nH]c3ncc(-c4ccccc4)cc23)cc1C1CCCC1 [GSK650394] (first compound 0.03 µM, partner dose 0.8 µM) reads 103%; that for `Cc1cc(Nc2cc(N3CCN(C)CC3)nc(Sc3ccc(NC(=O)C4CC4)cc3)n2)n[nH]1` [Tozasertib] + COc1cc(Nc2ncc(F)c(Nc3ccc4c(n3)NC(=O)C(C)(C)O4)n2)cc(OC)c1OC [Tamatinib] (first compound 0.03 µM, partner dose 2 µM), 88.8%.

With `Cc1cc(Nc2cc(N3CCN(C)CC3)nc(Sc3ccc(NC(=O)C4CC4)cc3)n2)n[nH]1` [Tozasertib] + Cn1cncc1[C@@](N)(c1ccc(Cl)cc1)c1ccc2c(c1)c(-c1cccc(Cl)c1)cc(=O)n2C [tipifarnib] (first compound 0.03 µM, partner dose 0.05 µM), the cell count was found to be 154%. The result for `CC[C@]1(O)C[C@H]2CN(CCc3c([nH]c4ccccc34)[C@@](C(=O)OC)(c3cc4c(cc3OC)N(C=O)[C@H]3[C@@](O)(C(=O)OC)[C@H](OC(C)=O)[C@]5(CC)C=CCN6CC[C@]43[C@@H]65)C2)C1` [vincristine] + NC(=O)Nc1cc(-c2cccc(F)c2)sc1C(=O)N[C@H]1CCCNC1 [AZD7762] (first compound 0.0005 µM, partner dose 0.1 µM) reads 60.3%; that for `Cc1cc(Nc2cc(N3CCN(C)CC3)nc(Sc3ccc(NC(=O)C4CC4)cc3)n2)n[nH]1` [Tozasertib] + CN(C)S(=O)(=O)c1ccc2c(c1)/C(=C/c1cc3c([nH]1)CCCC3)C(=O)N2 [SU6656] (first compound 0.03 µM, partner dose 2 µM), 101%. The figure for `N#CC[C@H](C1CCCC1)n1cc(-c2ncnc3[nH]ccc23)cn1` [ruxolitinib] + COc1cc2c(Oc3ccc4[nH]c(C)cc4c3F)ncnc2cc1OCCCN1CCCC1 [cediranib] (first compound 5 µM, partner dose 2 µM) is 95.1%; for `CC[C@]1(O)C[C@H]2CN(CCc3c([nH]c4ccccc34)[C@@](C(=O)OC)(c3cc4c(cc3OC)N(C=O)[C@H]3[C@@](O)(C(=O)OC)[C@H](OC(C)=O)[C@]5(CC)C=CCN6CC[C@]43[C@@H]65)C2)C1` [vincristine] + COc1cc2c(Oc3ccc4[nH]c(C)cc4c3F)ncnc2cc1OCCCN1CCCC1 [cediranib] (first compound 0.0005 µM, partner dose 2 µM) it is 69.5%. The result for `CC[C@]1(O)C[C@H]2CN(CCc3c([nH]c4ccccc34)[C@@](C(=O)OC)(c3cc4c(cc3OC)N(C=O)[C@H]3[C@@](O)(C(=O)OC)[C@H](OC(C)=O)[C@]5(CC)C=CCN6CC[C@]43[C@@H]65)C2)C1` [vincristine] + O=C(Nc1cccc(Cl)c1)Nc1ncc(CCNc2ncnc3ccsc23)s1 [SNS314] (first compound 0.0005 µM, partner dose 0.004 µM) reads 61.1%.
